# Data from the supplement of paper PMC9446081.
# Among all 39,000 compounds or so, about 220 (0.56%) showed activity. This is one part of the list.
# Test system: Escherichia coli K-12 BW25113
# Assay: relative growth (OD600 normalised to plate interquartile mean) (fraction); higher = less growth inhibition, active = 0.2 or less
# Conditions: 50 µM; LB; incubation time: overnight (16-24 h)
# 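Further: static incubation at 37 °C against the wild-type strain, values averaged over two biological replicates.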
row,SMILES,relative growth
1,COc1ccccc1-c1cc(=O)c2c(OC)cccc2o1,inactive: 0.774
2,C[C@@H]1CN([C@H](C)CO)C(=O)CCCn2cc(nn2)CO[C@@H]1CN(C)S(=O)(=O)c1ccccc1C#N,inactive: 1
3,CNC[C@@H]1OCCCC[C@H](C)Oc2ccc(NS(=O)(=O)c3cn(C)cn3)cc2C(=O)N([C@H](C)CO)C[C@@H]1C,inactive: 0.959
4,CC=Cc1ccc2n(c1=O)C[C@@H]1[C@@H](CO)[C@H](C(=O)NCC3CC3)[C@H]2N1S(=O)(=O)c1cn(C)cn1,inactive: 0.974
5,C[C@@H]1CN([C@@H](C)CO)C(=O)c2cc(NC(=O)c3ccncc3)ccc2O[C@@H]1CN(C)S(=O)(=O)c1cn(C)cn1,inactive: 1.01
6,Cc1noc(C)c1NC(=O)Nc1ccc2c(c1)C(=O)N([C@H](C)CO)C[C@H](C)[C@@H](CN(C)C(=O)C1CCCCC1)OCCCC[C@@H](C)O2,inactive: 1.02
7,C[C@]12C=CC(=O)C=C1CC[C@@H]1[C@@H]2[C@@H](O)C[C@@]2(C)[C@H]1CC[C@]2(O)C(=O)COC(=O)c1ccc(CO[N+](=O)[O-])cc1,inactive: 0.952
8,C[C@@H]1CN([C@H](C)CO)C(=O)c2cc(NC(=O)CCC(F)(F)F)ccc2O[C@@H]1CN(C)Cc1ccc(Oc2ccccc2)cc1,inactive: 0.999
9,CO[C@H]1CN(C)C(=O)c2cc(NC(=O)C3CC3)ccc2OC[C@@H](C)N(C(=O)C2CCOCC2)C[C@@H]1C,inactive: 1.02
10,Cc1ccc(C(=O)Nc2ccc(S(=O)(=O)[O-])c3cc(S(=O)(=O)[O-])cc(S(=O)(=O)[O-])c23)cc1NC(=O)c1cccc(NC(=O)Nc2cccc(C(=O)Nc3cc(C(=O)Nc4ccc(S(=O)(=O)[O-])c5cc(S(=O)(=O)[O-])cc(S(=O)(=O)[O-])c45)ccc3C)c2)c1.[Na+].[Na+].[Na+].[Na+].[Na+].[Na+],inactive: 0.992
11,C[C@H]1CCCCO[C@@H](CN(C)C(=O)C2CCCCC2)[C@@H](C)CN([C@@H](C)CO)C(=O)c2cc(NC(=O)CCC(F)(F)F)ccc2O1,inactive: 0.965
12,CCCN(C)C[C@@H]1OCCCC[C@@H](C)Oc2ccc(NC(=O)Nc3ccccc3)cc2C(=O)N([C@H](C)CO)C[C@@H]1C,inactive: 1.01
13,COc1ccc(S(=O)(=O)Nc2ccc3c(c2)C(=O)N([C@@H](C)CO)C[C@H](C)[C@H](CN(C)Cc2ccc(Cl)c(Cl)c2)O3)cc1,inactive: 1.02
14,C[C@H]1CN([C@@H](C)CO)S(=O)(=O)c2ccc(Br)cc2O[C@@H]1CN(C)C(=O)C1CCCCC1,inactive: 1
15,O.O=C(O)C1C(O)CCC2CN3CCc4c([nH]c5ccccc45)C3CC21 (configuration not stated),inactive: 0.889
16,CC(=O)N(CC(O)CO)c1c(I)c(C(=O)NCCO)c(I)c(C(=O)NCC(O)CO)c1I (configuration not stated),inactive: 1.01
17,COc1ccc(S(=O)(=O)N(C)C[C@H]2OCCCC[C@H](C)Oc3ccc(NC(=O)CCC(F)(F)F)cc3C(=O)N([C@@H](C)CO)C[C@H]2C)cc1,inactive: 1
18,C[C@@H]1CCCCO[C@H](CN(C)C(=O)Nc2cccc3ccccc23)[C@@H](C)CN([C@H](C)CO)C(=O)c2cc(NC(=O)CCC(F)(F)F)ccc2O1,inactive: 1
19,CCC(=O)NNC(=O)c1cccc(O)c1,inactive: 0.9

row,SMILES,relative growth
1,Cc1onc(-c2ccccc2Cl)c1C(=O)NC1C(=O)N2C1SC(C)(C)C2C(=O)[O-].[Na+] (configuration not stated),inactive: 1.04
2,C[C@H](CO)N1C[C@H](C)[C@H](CN(C)C(=O)Cc2ccccn2)Oc2cc(C#Cc3ccccc3)ccc2S1(=O)=O,inactive: 0.999
3,Cn1cnc(S(=O)(=O)N[C@H]2CC[C@H](CC(=O)NCC3CC3)O[C@@H]2CO)c1,inactive: 0.976
4,O=C(C[C@@H]1CC[C@@H]2[C@H](COC[C@H](O)CN2S(=O)(=O)c2ccc(Cl)cc2)O1)NCc1ccncn1,inactive: 1.01
5,COc1ccc(S(=O)(=O)N[C@@H]2CC[C@H](CC(=O)N3CCN(c4ccccc4)CC3)O[C@H]2CO)cc1,inactive: 0.993
6,C[C@H]1CN([C@@H](C)CO)C(=O)c2cc(NS(C)(=O)=O)ccc2O[C@H]1CN(C)Cc1ccc(C(=O)O)cc1,inactive: 1.02
7,CCS(=O)(=O)Nc1ccc2c(c1)C(=O)N(C)[C@@H]1CC[C@H](CC(=O)N[C@@H]3CCN(Cc4ccccc4)C3)O[C@@H]1CO2,inactive: 1.02
8,CC(C)NC(=O)Nc1ccc2c(c1)C(=O)N([C@@H](C)CO)C[C@@H](C)[C@@H](CN(C)C(=O)Nc1ccccc1)OCCCC[C@H](C)O2,inactive: 0.894
9,C[C@@H]1CCCCO[C@H](CN(C)S(=O)(=O)c2ccc(Cl)cc2)[C@H](C)CN([C@@H](C)CO)C(=O)c2cc(NC(=O)Nc3ccc(F)cc3)ccc2O1,inactive: 1.03
10,COc1ccc2c3c([nH]c2c1)[C@@H](CO)N(C[C@]13CN(C)C1)C(=O)CN1CCOCC1,inactive: 1.03
11,O=C(C[C@H]1C=C[C@H](NS(=O)(=O)c2ccc(F)cc2)[C@@H](CO)O1)NCc1ccc(Cl)c(Cl)c1,inactive: 0.995
12,CC(C)NC(=O)N(C)C[C@H]1Oc2ccc(NC(=O)C3CCCCC3)cc2CC(=O)N([C@H](C)CO)C[C@H]1C,inactive: 0.997
13,C[C@@H]1CN([C@H](C)CO)C(=O)c2cc(NC(=O)Cc3ccccc3)ccc2O[C@@H]1CN(C)C(=O)Nc1ccc(C(F)(F)F)cc1,inactive: 0.986
14,C[C@@H]1CN([C@H](C)CO)C(=O)Cc2cc(NC(=O)C3CC3)ccc2O[C@H]1CN(C)C(=O)Nc1ccccc1,inactive: 1.01
15,C[C@@H]1CCCCO[C@@H](CN(C)S(C)(=O)=O)[C@@H](C)CN([C@@H](C)CO)C(=O)c2cc(N(C)C)ccc2O1,inactive: 1
16,Cc1ccc(S(=O)(=O)N2C[C@@H](O)COC[C@H]3O[C@H](CC(=O)N[C@H]4CCN(Cc5ccccc5)C4)CC[C@@H]32)cc1,inactive: 1.01
17,C[C@H](CO)N1C[C@H](C)[C@H](CN(C)Cc2ccc(-c3ccccc3)cc2)Oc2ccc(NC(=O)Cn3cnnn3)cc2C1=O,inactive: 0.997
18,Cc1ccc(S(=O)(=O)N(C)C[C@H]2OCCCC[C@@H](C)Oc3ccc(NC(=O)CCC(F)(F)F)cc3C(=O)N([C@H](C)CO)C[C@H]2C)cc1,inactive: 0.968
